Assay results reported in PubChem BioAssay AID2546 (National Center for Advancing Translational Sciences (NCATS), 2010).
Where “and” joins values, the source holds several entries; their conditions need not be identical. Equal values may be shown once. The whole screen tested about 310,000 compounds, of which about 11,000 (3.5%) were called active. This list was built around the results that the source calls inconclusive (neither active nor inactive); the mix of calls is not that of the screen. Calls come from the whole dose curve; as a rule, active = well fitted inhibition curve with a large enough effect; inconclusive = small, poorly fitted or top-dose-only effect, or effect the other way; inactive = flat fitted curve, though single readings scatter. Potencies beside an inconclusive call are fits to weak or partial responses and may not hold up.

Experiment: VP16 counterscreen qHTS for inhibitors of ROR gamma transcriptional activity;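 note: Gal4-VP16 expression switched on by copper sulfate through the metallothionein promoter; nearly all actives have a fitted effect of over 50% in size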
Details: Drosophila S2 Gal4-VP16 UAS-luciferase, luminescence, 20 h; activity, negative = inhibition: at 53.6 µM (top of the series)
% is set by controls: 0 for no effect and ±100 for the full control effect; potency is the fitted concentration of half-maximal effect; tags give direction and shape of the fitted curve.

Which Potency does the source give for `CN(C)C(=O)/C(C#N)=C\c1cc(Br)c(Sc2ccc(Cl)cc2)o1` here?
Its Potency is active: 10 µM.

With `Cc1nc2ccccc2c(=O)n1NC(=O)c1c(O)c2c(n(CC(C)C)c1=O)CCCC2` as the compound, how does the Potency read?
Its Potency is inconclusive: 35.5 µM [inhibitor, single point].

With `CC(C)NS(=O)(=O)c1ccc(NC(=S)NC(=O)c2ccc(-c3ccccc3)cc2)cc1` as the compound, how does the Potency read?
The Potency was inconclusive: 35.5 µM [inhibitor, single point].

With `O=C(/C=C/Nc1ccc(F)cc1Br)c1ccccc1` as the compound, how does the Potency read?
The Potency was active: 7.08 µM.

With `COc1ccc(-c2cc(C(F)F)n3ncc(C(=O)Nc4cc(C)on4)c3n2)cc1` as the compound, how does the “activity, negative = inhibition” value read?
The value was inactive: 0%.

For `CN(C1CCCCC1)S(=O)(=O)c1ccc(S(=O)(=O)N(CC(=O)Nc2ccccc2)C2CC2)cc1`, which “activity, negative = inhibition” value is on record?
Its value is inactive: -1.13%.

For `O=C(Nc1ccc(N2CCOCC2)cc1)c1cnccn1`, which Potency is on record?
Its Potency is active: 7.94 µM.

For `CCn1nccc1C(=O)Nc1ccc(Cl)cc1Cl`, which Potency is on record?
The Potency was inconclusive: 31.6 µM [activator, single point].

With `COc1ccc(N=C2SC(CC(=O)Nc3ccccc3)C(=O)N2CCN2CCOCC2)cc1` (centres undefined) as the compound, how does the “activity, negative = inhibition” value read?
The value was inactive: -23.3%.

Which “activity, negative = inhibition” value does the source give for `N#C/C(=C/c1ccc(CNS(=O)(=O)c2ccccc2)o1)C(N)=O` here?
The value was inactive: -3.37%.

For `c1ccc(CN2CCN(c3ncnc4c3[nH]c3ccccc34)CC2)cc1`, which Potency is on record?
Its Potency is active: 15.8 µM.

Which Potency does the source give for `Cc1cc(Sc2nnc(N)s2)c2ccccc2n1` here?
Its Potency is active: 11.2 µM.

Which Potency does the source give for `C=CCN(CC=C)S(=O)(=O)c1ccc(NC(=S)NC(=O)c2ccc(-c3ccccc3)cc2)cc1` here?
The Potency was active: 2.51 µM.

With `Cc1ccn2cc(-c3cc4ccccc4oc3=O)nc2c1` as the compound, how does the Potency read?
The Potency was inconclusive: 3.98 µM [inhibitor, partial curve].

For `Cc1ccc(C(=O)/C=C2\NCC(C)NC2=O)cc1` (centres undefined), which Potency is on record?
The Potency was active: 10 µM.

Which “activity, negative = inhibition” value does the source give for `COc1ccc2[nH]c3c(=O)n(CCCCC(=O)NCCC(C)C)c(=S)[nH]c3c2c1` here?
Its value is inactive: -9.37%.

For `CCn1c(CSc2nc3ccccc3n2C)nc2ccccc21`, which Potency is on record?
The Potency was inconclusive: 25.1 µM [inhibitor, single point].

Which Potency does the source give for `CC(=O)N1c2ccccc2C(C)(C)C2CCC(C)CC21` (centres undefined) here?
The Potency was inconclusive: 14.1 µM [inhibitor, single point].

For `CCCCOc1ccc(C(=O)NNC(=O)C2C3C=CC(C3)C2C(=O)O)cc1` (centres undefined), which “activity, negative = inhibition” value is on record?
Its value is inactive: -22.6%.

With `CC1(C)Cc2c(sc3[nH]c(=O)n(CC(=O)NCC4CCCO4)c(=O)c23)CO1` (centres undefined) as the compound, how does the Potency read?
The Potency was inconclusive: 3.55 µM [inhibitor, single point].

For `Cc1ccc(O)c(NC(=S)NC(=O)/C=C/c2ccco2)c1`, which Potency is on record?
The Potency was inconclusive: 20 µM [inhibitor, single point].

With `Cc1ccc(N(CC(=O)N2CC(=O)Nc3ccccc32)S(=O)(=O)c2ccc3c(c2)OCCO3)cc1` as the compound, how does the “activity, negative = inhibition” value read?
Its value is inactive: -5.11%.

Which Potency does the source give for `Cc1ccc(S(=O)(=O)N2CCOCC2)cc1C(=O)Nc1nc2ccccc2[nH]1` here?
Its Potency is active: 17.8 µM.

Which Potency does the source give for `CC(C)=C1C2CCC1C1C(=O)N(c3nc(-c4ccc(F)cc4)c(C)s3)C(=O)C21` (centres undefined) here?
The Potency was active: 20 µM.

Which “activity, negative = inhibition” value does the source give for `O=C(Nc1nc2c(Br)cc(Br)cc2c(=O)s1)C1CCC1` here?
The value was inactive: -0.754%.

For `O=C(NC(=S)NCCc1ccccc1)c1cccc(Cl)c1`, which Potency is on record?
Its Potency is active: 17.8 µM.

For `CCn1ccnc1CN1CCCC(C(=O)c2ccc3cc(OC)ccc3c2)C1` (centres undefined), which Potency is on record?
The Potency was active: 1.58 µM.

With `CCc1cccc2c1NC(=O)[C@]21[C@@H]2C(=O)N(Cc3ccccc3)C(=O)[C@@H]2[C@@H]2CCCN21` as the compound, how does the “activity, negative = inhibition” value read?
The value was inactive: -8.08%.

For `COc1cc(C2C3=C(CC(C)(C)CC3=O)OC(N)=C2[N+](=O)[O-])ccc1O` (centres undefined), which Potency is on record?
The Potency was inconclusive: 35.5 µM [inhibitor, single point].

Which Potency does the source give for `COc1ccc(C(=O)Nc2cc(C)c(NC(=O)c3ccccc3OC)cn2)cc1` here?
The Potency was inconclusive: 15.8 µM [inhibitor, single point].

Which Potency does the source give for `c1ccc(-c2nc3ccccc3[nH]2)nc1` here?
The Potency was active: 6.31 µM.

Which “activity, negative = inhibition” value does the source give for `COC(=O)c1ccc(NC(=O)Cc2ccc(F)cc2)cc1` here?
Its value is inactive: 0.916%.

Which Potency does the source give for `Cc1ccc(/C=N/NC(=O)c2c[nH]c3ccccc23)s1` here?
The Potency was inconclusive: 35.5 µM [inhibitor, single point].

Which Potency does the source give for `Cc1cc2cc(CNC(=S)Nc3ccc(OC(F)(F)F)cc3)ccc2[nH]1` here?
The Potency was inconclusive: 35.5 µM [inhibitor, single point].

For `O=C(CSc1nc2ccccc2n1Cc1ccccc1Cl)N/N=C/c1ccccc1C(=O)O`, which Potency is on record?
The Potency was inconclusive: 6.31 µM [inhibitor, single point].

Which “activity, negative = inhibition” value does the source give for `Cc1ccccc1-c1nc(-c2ccc(NC(=O)c3ccc(Br)o3)cc2)no1` here?
Its value is inactive: -13.1%.

With `CCCC(=O)N(CCc1ccc(OC)cc1)Cc1nc2ccccc2c(=O)[nH]1` as the compound, how does the Potency read?
The Potency was inconclusive: 10 µM [inhibitor, partial curve].

Which Potency does the source give for `O=c1nc2sc3ccccc3n2c(=O)n1-c1cccc(Cl)c1` here?
The Potency was inconclusive: 22.4 µM [inhibitor, single point].

For `O=C(c1ccc(Cl)cc1)N1N=CCC1(O)c1ccc(Cl)cc1` (centres undefined), which Potency is on record?
The Potency was inconclusive: 17.8 µM [inhibitor, single point].

With `CCCN(CCC)C(=O)/C=C/c1cccc([N+](=O)[O-])c1` as the compound, how does the “activity, negative = inhibition” value read?
The value was inactive: 1.18%.

With `N#Cc1nc(COc2ccccc2F)oc1N1CCCCCC1` as the compound, how does the Potency read?
Its Potency is inconclusive: 11.2 µM [activator, partial curve].

Which Potency does the source give for `CC1CCN(C(=S)Nc2ccc(SC(F)F)cc2)CC1` here?
Its Potency is active: 11.2 µM.

With `COc1cc(N2C(=O)C=CC2=O)c(OC)cc1Cl` as the compound, how does the Potency read?
The Potency was active: 4.47 µM.

With `Cc1ccc(C(=O)C[n+]2cc(-c3ccccc3)n3c2CCCCC3)cc1` as the compound, how does the Potency read?
Its Potency is inconclusive: 20 µM [inhibitor, single point] and inconclusive: 35.5 µM [inhibitor, single point].

Which Potency does the source give for `OC[C@@H]1[C@@H](c2ccc(Cl)cc2)C(c2cccc(Cl)c2)=NN1c1ccccc1` here?
The Potency was inconclusive: 28.2 µM [inhibitor, single point].

With `O=C(NC1CCCCC1)C(c1ccc2ncccc2c1)N(Cc1cccs1)C(=O)c1cccs1` (centres undefined) as the compound, how does the “activity, negative = inhibition” value read?
Its value is inactive: -8.72%.

For `CCOC(=O)c1sc(C)c2c1NC(C)(c1cccs1)NC2=O` (centres undefined), which activity, negative = inhibition is on record?
Its activity, negative = inhibition is inactive: 1.66% [at 0.365 µM].

Which Potency does the source give for `CC1CCCN(S(=O)(=O)c2ccc(C(=O)Nc3nnc(-c4ccccc4Cl)o3)cc2)C1` (centres undefined) here?
Its Potency is active: 0.158 µM.

Which “activity, negative = inhibition” value does the source give for `Cc1cc(C)nc(NC2=NCCN2C(=O)NC2CCCCC2)n1` here?
The value was inactive: 12.2%.
